PubChem BioAssay AID652106 (National Center for Advancing Translational Sciences (NCATS), 2013)
Hit rate of the full screen: of about 370,000 compounds, about 500 (0.14%) were called active. The inconclusive results got no clear call from the source; some entries with a clear call stand among them for comparison. The call rests on the fitted dose curve; in most records, active means well fitted activation curve with a large enough effect; inconclusive means small, poorly fitted or top-dose-only effect; inactive means no such curve, though single readings can be large or run the other way. A potency beside an inconclusive call is a rough fit, not a confirmed value.

Experiment: qHTS of alpha-syn Inhibitors; further: nearly all actives have a fitted effect of over 65% in size
Conditions: Yeast expressing alpha-synuclein, BacTiter-Glo, 24 h; Potency: growth rescue unless noted; series mostly up to 46.1 µM
Procedure, shortened: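 Readout is rescue of growth in alpha-synuclein-expressing yeast, so inhibitors of toxicity appear as activators. Growth after 24 hr at 30 deg C in galactose medium is quantified by luminescence.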
Potency means the concentration at half of the fitted maximal effect; tags describe the fitted curve by direction and shape.

Potency, inconclusive:
CCn1c(SCc2ccc(Cl)c(Cl)c2)nnc1C(C)NC(=O)c1ccc(OC)cc1 (stereo not drawn) 6.31 µM [activator, single point]
c1ccc(CCN2CN(CCCN3CCOCC3)c3nc4ccccc4n3C2)cc1 20 µM [activator, single point]
Cc1cc(C)nc(S/C=C/C(=O)c2ccccc2)n1 35.5 µM [activator, single point]
Cc1ccc(-c2ccc(CN3C(C)C(=O)N(Cc4cn(CC5CCCCC5)nn4)CCS3(=O)=O)cc2)cc1 (stereo not drawn) 35.5 µM [activator, single point]
CCc1ccc(N2C(=O)CS(=O)(=O)C23C(=O)N(Cc2ccccc2)c2ccccc23)cc1 (stereo not drawn) 31.6 µM [activator, single point]
COC(=O)C1=CN(c2ccc(C(C)(C)C)cc2)C(N)=C(C#N)C1c1cccc2ccccc12 (stereo not drawn) 31.6 µM [activator, single point]
COc1ccc(Cn2c(=S)[nH]c3ccsc3c2=O)cc1 5.62 µM [activator, single point]
CC12CCC(O)CC1=CCC1C2CCC2(C)C3=NN=CC3CC12 (stereo not drawn) 1.41 µM [activator, full curve]
CCSc1nc(=S)cc(C)[nH]1 22.4 µM [activator, single point]
O=C(O)CCC(=O)NCc1ccc2[nH]c3c(c2c1)CCCC3 5.62 µM [activator, single point]
CCOC(=O)c1sc(N(Cc2ccccc2)C(=O)COC(=O)c2ccc(O)cc2)nc1C 12.6 µM [activator, partial curve]
CCOC(=O)c1ccc(-c2ccc(C3Nc4ccccc4C(=O)N3O)o2)cc1 (stereo not drawn) 22.4 µM [activator, single point]
COc1ccc(NC(=S)N(CCCN2CCCC2)Cc2cccn2Cc2ccc(Cl)cc2)cc1Cl 31.6 µM [activator, single point]
O=C(COC(=O)c1cc(-c2ccccc2)nc2ccccc12)Nc1ccc2c(c1)OCO2 31.6 µM [activator, single point]
CCOC1=C2[C@H]([C@H]3C(=O)N(c4ccccc4)C(=O)[C@H]3C1)[C@@H](C(C)C)N(S(=O)(=O)c1ccc(C)cc1)[C@H]2c1ccccc1 35.5 µM [activator, single point]
CCN(C(=O)Cn1c(=O)n(Cc2ccc3c(c2)OCO3)c(=O)c2ccc(C(=O)NC3CCCCC3)cc21)c1cccc(C)c1 5.01 µM [activator, single point]
Cc1cccc(OCc2nc(C#N)c(N3CCCC3)o2)c1 20 µM [activator, single point]
COC(=O)C1NN=C(C(=O)c2ccc(Br)cc2)C1c1cccc(Br)c1 (stereo not drawn) 12.6 µM [activator, partial curve]
Cn1c(=O)c2c(nc(CN3CCN(c4ccccc4)CC3)n2Cc2ccccc2Cl)n(C)c1=O 35.5 µM [activator, single point]
CCN(Cc1nc(-c2ccccc2)no1)C(=O)c1ccc2c(c1)OCO2 5.62 µM [activator, single point]
O=C1c2sccc2-c2cccc3cccc1c23 17.8 µM [activator, partial curve]
Cc1ccc(C2CC(=O)n3nc(-c4cccc(C)c4)nc3S2)cc1 (stereo not drawn) 35.5 µM [activator, single point]
CC(=O)c1c(C)n(-c2ccc(C)cc2)c2ccc(OC(=O)COc3ccccc3)cc12 35.5 µM [activator, single point]
Cc1nc(C(=O)O)cc([N+](=O)[O-])c1C 31.6 µM [activator, single point]
CN(C)c1nc(N)c([N+](=O)[O-])c(N2CCCCCC2)n1 4.47 µM [activator, single point]
O=C(NN1C(=O)c2ccccc2C1=O)C1CCCCC1 3.98 µM [activator, single point]
O=C(NNC(=O)C12CC3CC(CC(C3)C1)C2)c1ccccn1 31.6 µM [activator, single point]
O=C(COC(=O)c1n[nH]c2ccccc12)c1cccc(Br)c1 20 µM [activator, partial curve]
Cc1ccc(-c2nc(N)sc2C)cc1 22.4 µM [activator, partial curve]
CC(C)NC(=O)C(Sc1ccccc1)c1ccccc1 (stereo not drawn) 5.62 µM [activator, single point]
COc1ccc(CNC(=O)c2ccc(CS(=O)(=O)c3ccc(Br)cc3)o2)cc1 3.16 µM [activator, single point]
CSc1ccc(C2C(C#N)=C(N)Oc3c2ccc(=O)c2c(C)oc(C)c32)cc1 (stereo not drawn) 5.62 µM [activator, single point]
Cc1ccc2c(c1)/C(=C/c1ccccc1)C(=O)N2 35.5 µM [activator, single point]
CCc1ccc(C=NC23CN4CN(CN(C4)C2)C3)s1 3.55 µM [activator, single point]
CN(CCOc1ccc(Cl)cc1)C(=O)c1cccc(S(=O)(=O)N2CCN(c3ccccc3)CC2)c1 35.5 µM [activator, single point]
Cc1ccc2c(c1)c(C)c(C)n2CC(O)Cn1nnc2ccccc21 (stereo not drawn) 11.2 µM [activator, single point]
CC(=O)N1CCOCC1c1cc(C(=O)Nc2ccccc2)no1 (stereo not drawn) 22.4 µM [activator, single point]
CC(C(=O)NCc1ccc2c(c1)OCO2)N(c1ccccc1)S(C)(=O)=O (stereo not drawn) 3.55 µM [activator, single point]
O=C(CCSCc1cccc(F)c1)NCc1ccc(F)cc1 12.6 µM [activator, single point]
Cc1ccc(C(=O)CC(=O)c2cc(Cl)ccc2O)cc1 31.6 µM [activator, single point]
Cc1ccc(NC(=O)c2ccc3c(c2)C(=O)N(c2cc(C)ccc2C)C3=O)nc1 31.6 µM [activator, single point]
O=S(=O)(Nc1cccc2cccnc12)c1ccccc1 35.5 µM [activator, single point]
Cc1ccc(S(=O)(=O)N2C[C@H]3n4c(=O)ccc(=O)n4C[C@H](OC(=O)NCC4CCCCC4)[C@@]3(O)C2)cc1 3.55 µM [activator, partial curve]
COCCN(CCNC(=O)c1ccc(NC2=NC3CS(=O)(=O)CC3S2)cc1)Cc1ccco1 (stereo not drawn) 5.62 µM [activator, single point]
CC1Cc2ccccc2N1C(=O)c1cccnc1 (stereo not drawn) 5.62 µM [activator, single point]
CCN(CC)CCN(C(=O)c1ccc2c(c1)CCCC2)c1nc2c(OC)cccc2s1 5.62 µM [activator, single point]
CCOC(=O)C(C)(C)N(Cc1cccc(C)c1)S(=O)(=O)c1cccc([N+](=O)[O-])c1 35.5 µM [activator, partial curve]
COC(=O)c1sc(NC(C)=O)c(C(=O)OC)c1C 3.98 µM [activator, single point]

Potency, inactive:
CCOC(=O)C1=CCN(S(=O)(=O)c2ccccc2)C1c1ccc(Cl)cc1 (stereo not drawn)
COCCCNc1oc(/C=C/c2ccccc2)nc1C#N
Clc1c(CSc2nc3ccccc3o2)nc2ccccn12
CCCN1CNc2c(c(=O)[nH]c(=S)n2CCc2cc(C)ccc2C)C1
O=C(Nc1ccccc1N1CCCC1)c1cc(S(=O)(=O)N2CCOCC2)ccc1Cl
CCc1ccc(OCc2ccccc2C(=O)Nc2ccc3nc(C)cc(N)c3c2)cc1
COc1ccccc1-c1nnc(C2CCN(S(=O)(=O)c3cccc([N+](=O)[O-])c3)CC2)o1
Cc1cc(C)cc(C(=O)O/N=C(\N)c2ccc(Br)cc2)c1
CC(=O)c1sc(=S)n(Cc2ccccc2)c1C
O=C1NC[C@H](CC2CCCCC2)N(CCc2cccc3ccccc23)C1=O
Cc1ccc(C(=O)OC(C)CN2CCN(C)CC2)cc1 (stereo not drawn)
CCCn1ncc2c(Nc3ccc(C)c(C)c3)ncnc21
COc1ccc(OC)c(NC(=O)CC2SC(=Nc3ccccc3)N(CCc3ccccn3)C2=O)c1 (stereo not drawn)
c1coc(-c2nnc3sc(C4CCCCC4)nn23)c1
CCCN1C(=O)c2ccccc2NC1c1ccc(OC)c(COc2cccc(C)c2C)c1 (stereo not drawn)
CC(=O)NCCc1nc(-c2ccc(Cl)cc2)no1
O=C(NCc1nnc(SCC(=O)N2CCN(c3ccccc3)CC2)o1)c1c(F)cccc1Cl
C/C(N)=C(/C#N)C(=O)COC(=O)c1cc(-c2ccc(Br)cc2)nc2ccccc12
CC1(C)CC(=O)C2=C(C1)c1c(ccc3ccccc13)NC2c1ccco1 (stereo not drawn)
Cc1ccc(O)c(N=CC2=C(O)c3ccccc3C2=O)c1
